According to PubChem BioAssay (NCI):
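Growth conditions: 96-well plates. Treatment: test compound, 48 hours, 5 concentrations. Analysis: linear interpolation between bracketing concentrations; unreached endpoints set to highest concentration. GI50 marks 50% less growth. The concentration for full growth arrest is given as TGI.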

System: NCI-H322M lung
Assay: NCI-60 cell line screen, 48 h

SMILES | GI50 [µM] | TGI [µM]
FC(F)(F)c1cc2c(Cl)ncnc2n1CCN1CCCCC1 | 15.6 | 44
COc1cc(Nc2nc(O)c(/C=C3\C=Nc4ccccc43)s2)cc(OC)c1OC | 6.38 | 21.2
O=C(N/N=C/c1ccc(Br)o1)c1[nH]c2ccc(Br)cc2c1-c1ccccc1 | 0.661 | > 52.4
C[C@H]1[C@@H](CC(=O)N[C@@H](Cc2coc3ccccc23)B(O)O)O[C@@H]2OC3(C)CC[C@H]4[C@H](C)CC[C@@H]1[C@@]24O3 | 17.7 | 99.8
